# The campaign covered roughly 390,000 compounds. About 17,000 (4.4%) were called active. The inconclusive results got no clear call from the source; some entries with a clear call stand among them for comparison. Calls follow the shape of the dose curve; as a rule, active = well fitted inhibition curve with a large enough effect; inconclusive = small, poorly fitted or top-dose-only effect; inactive = no such curve, though single readings can be large or run the other way. Potencies beside an inconclusive call are fits to weak or partial responses and may not hold up.
# Biological target: Lysine-specific demethylase 4A (Homo sapiens) (UniProt O75164)
# Assay: qHTS Assay for Inhibitors of JMJD2A-Tudor Domain; also: nearly all actives have a fitted effect of over 50% in size
# Conditions: AlphaScreen JMJD2A-Tudor / H3K4me3 peptide binding; activity change, negative = inhibition: at 114 µM (top of the series)
# % is scaled to controls: 0 for no effect and ±100 for the full control effect; potency is read from the fitted curve at half-maximal effect; tags tell the direction and shape of the fitted curve.
# Sequence of UniProt O75164 (O75164 whole entry, looked up, the tested form may be a part): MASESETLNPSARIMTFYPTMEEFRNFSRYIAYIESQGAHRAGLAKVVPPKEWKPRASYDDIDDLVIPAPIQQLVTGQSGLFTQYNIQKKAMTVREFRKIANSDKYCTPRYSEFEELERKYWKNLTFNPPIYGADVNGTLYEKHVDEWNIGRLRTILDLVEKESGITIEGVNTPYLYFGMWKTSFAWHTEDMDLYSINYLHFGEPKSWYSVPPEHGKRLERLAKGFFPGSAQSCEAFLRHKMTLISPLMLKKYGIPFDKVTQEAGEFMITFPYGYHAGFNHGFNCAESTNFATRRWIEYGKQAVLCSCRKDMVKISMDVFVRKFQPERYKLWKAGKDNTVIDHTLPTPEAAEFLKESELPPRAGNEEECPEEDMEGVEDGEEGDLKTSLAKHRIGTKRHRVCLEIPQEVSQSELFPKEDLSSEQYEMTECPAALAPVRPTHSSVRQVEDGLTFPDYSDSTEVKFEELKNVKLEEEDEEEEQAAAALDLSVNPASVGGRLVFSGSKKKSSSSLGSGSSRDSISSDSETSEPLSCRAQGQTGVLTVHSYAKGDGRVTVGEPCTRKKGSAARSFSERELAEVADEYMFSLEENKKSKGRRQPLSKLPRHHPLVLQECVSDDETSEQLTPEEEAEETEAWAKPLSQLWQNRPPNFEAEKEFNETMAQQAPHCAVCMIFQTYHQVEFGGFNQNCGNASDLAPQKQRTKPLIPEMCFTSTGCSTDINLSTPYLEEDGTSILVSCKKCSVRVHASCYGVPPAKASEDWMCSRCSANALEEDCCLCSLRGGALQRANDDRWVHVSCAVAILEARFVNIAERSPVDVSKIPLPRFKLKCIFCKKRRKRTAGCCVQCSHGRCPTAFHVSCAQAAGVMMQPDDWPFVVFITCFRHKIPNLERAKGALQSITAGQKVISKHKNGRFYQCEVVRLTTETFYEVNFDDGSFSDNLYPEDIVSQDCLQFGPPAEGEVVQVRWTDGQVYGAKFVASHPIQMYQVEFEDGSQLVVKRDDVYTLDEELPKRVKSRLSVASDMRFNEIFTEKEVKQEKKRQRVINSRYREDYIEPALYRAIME
Compound,Potency,"activity change, negative = inhibition"
CC(C)n1c(=S)[nH]c2cc(Cl)ccc21,"inconclusive: 56.2 µM [inhibitor, partial curve]",
COc1ccc(N2C(=O)CS(=O)(=O)C23C(=O)N(Cc2cccc(F)c2)c2ccccc23)cc1OC (centres undefined),,inactive: -17.5%
Cc1cc(Cl)ccc1OCC(=O)Nc1c(Cl)ccc2nsnc12,,inactive: 3.36%
CN(C(=O)CSc1nnc(COc2ccccc2F)n1N)C1CCCCC1,,inactive: -9.52%
CCOC(=O)N1CCC(NC(=O)CC2C(=O)NCCN2Cc2ccccc2F)CC1 (centres undefined),,inactive: -11.6%
COc1cc(C(=O)N/N=C/c2ccc(OC)c(CN3CCN(c4ccc(F)cc4)CC3)c2)ccc1O,active: 44.7 µM,
COc1ccc2c(c1)CCC/C2=N\Nc1nc(C(=O)NN)cs1,,inactive: -32.4%
Cc1ccc(NC(=S)N/N=C2/CCCCc3ccccc32)cc1,"inconclusive: 35.5 µM [inhibitor, partial curve]",
CCc1cccc(NC(=O)CCS(=O)(=O)c2ccc3c(c2)NC(=O)CO3)c1,"inconclusive: 17.8 µM [inhibitor, full curve, poor fit]",
COC(=O)CN1C(=O)N(c2ccccc2)C(N(O)C(=O)Nc2ccccc2)C1(C)C (centres undefined),"inconclusive: 15.8 µM [inhibitor, partial curve, poor fit]",
O=C(Nc1ccc(F)cc1)N1CCN(c2ccccc2F)CC1,,inactive: -1.03%
S=c1[nH]nc(-c2cccnc2)n1/N=C/C(Cl)=C\c1ccccc1,"inconclusive: 15.8 µM [inhibitor, full curve, poor fit]",
CC(C)C(C(=O)Nc1ccc2c(c1)OCCO2)N1C(=O)c2ccccc2C1=O (centres undefined),"inconclusive: 89.1 µM [inhibitor, single point]",
Cc1nn(-c2ccccc2)c2c1N(CCCC(=O)NCc1ccc(N(C)C)cc1)C(=O)CS2,active: 56.2 µM,
C=CCn1c(O)c(N=NC(=S)Nc2cccc(OC)c2)c2ccccc21,"inconclusive: 10 µM [inhibitor, full curve]",
CC(C)(c1ccccc1)c1ccc(OCCCNCCO)cc1,,inactive: -15.3% [at 11.4 µM]
O=C(NN=C1CCCCCCCCCCC1)c1ccncc1,active: 28.2 µM,
CCC1CCCCN1C(=O)CCCOc1ccccc1 (centres undefined),active: 14.1 µM,
COc1ccc(NC2CCCN(Cc3cccc4cnccc34)C2)cc1 (centres undefined),"inconclusive: 39.8 µM [inhibitor, full curve, poor fit]",
CC1=NN(C(N)=S)C(=O)C1N=Nc1ccc(Cl)cc1 (centres undefined),"inconclusive: 50.1 µM [inhibitor, partial curve]",
CCCCC(=O)Nc1nc(C)c(-c2csc(Nc3ccc(Cl)cc3)n2)s1,"inconclusive: 35.5 µM [inhibitor, partial curve]",
COc1ccc(C(c2c(N)[nH]c(=S)[nH]c2=O)c2c(N)[nH]c(=S)[nH]c2=O)cc1,"inconclusive: 25.1 µM [inhibitor, partial curve]",
CCc1ccc(-c2cc(N)n(-c3ccccc3)n2)cc1,"inconclusive: 35.5 µM [inhibitor, full curve]",
COC(C(=O)Nc1ccc(Cl)cc1C)c1ccccc1 (centres undefined),,inactive: -14.5% [at 57.1 µM]
COc1ccc2sc(-c3ccc(N(C)C)cc3)c(C#CCO)c2c1,"inconclusive: 50.1 µM [inhibitor, partial curve]",

Compound,Potency,"activity change, negative = inhibition"
COc1ccc(OCCN2CCN(C3CC(=O)N(CCC(C)C)C3=O)CC2)cc1 (centres undefined),,inactive: -12.7%
O=Cc1ccc(OCCOc2ccc([N+](=O)[O-])cc2)cc1,"inconclusive: 79.4 µM [inhibitor, partial curve]",
O=C(CN1C(=O)C(=O)N(Cc2ccco2)C1=O)c1c[nH]c2ccccc12,,inactive: -20.9%
COC(=O)c1c(Cl)c2n3ccccc3c(C)c(-c3ccccc3)c-2c1C(=O)OC,"inconclusive: 12.6 µM [inhibitor, full curve]",
CCCOc1ccccc1NC(=O)c1ccc(N)cc1,,inactive: -10.8%
Cc1ccc(C2=NNC(=Nc3ccc(F)cc3)SC2)cc1,"inconclusive: 44.7 µM [inhibitor, partial curve]",
O=C(CN(C(=O)CNC(=O)c1ccco1)c1cccc(F)c1)NC1CCCCC1,,inactive: -13.1%
COc1ccc(NC(=S)N2CCN(C/C=C/c3ccccc3)CC2)cc1,"inconclusive: 31.6 µM [inhibitor, single point]",
COC(=O)c1ccccc1NC(=O)Cn1c(CCC(=O)O)ccc1-c1cccs1,inactive,
O=C(O)c1cccc(S(=O)(=O)NNc2ccccc2C(F)(F)F)c1,active: 7.94 µM,
COCc1nnc(NC(=O)c2ccc(S(=O)(=O)N(C)C3CCCCC3)cc2)o1,active: 79.4 µM,
CCOC(=O)c1c(NC(=S)N2CCOCC2)sc(C)c1C,,inactive: -14.1%
Cc1c(OCc2ccc(C(=O)O)o2)ccc2c3c(c(=O)oc12)CCC3,"inconclusive: 89.1 µM [inhibitor, single point]",
Cc1c(-n2c(=S)[nH]c3ccccc3c2=O)c(=O)n(-c2ccccc2)n1C,active: 20 µM,
CC(C)(C)c1nnc(N/N=C/c2cc(Br)ccc2O)n(N)c1=O,active: 22.4 µM,
Cc1ccccc1NS(=O)(=O)c1ccc2[nH]cc(C(=O)N(C)Cc3ccco3)c(=O)c2c1,"inconclusive: 79.4 µM [inhibitor, single point]",
Cc1ccc(/C=C/C(=O)Nc2ccc(S(=O)(=O)Nc3ncccn3)cc2)cc1,"inconclusive: 39.8 µM [inhibitor, single point]",
CCOC(=O)N1CCC(=NNc2ccc(S(N)(=O)=O)cc2[N+](=O)[O-])CC1,,inactive: -8.97%
Cc1nn(CC(=O)Nc2nnc(CC(=O)N3CCCC3)s2)c(=O)c2ccccc12,,inactive: 3.82% [at 11.4 µM]
COc1ccc(N2C(=O)CC(Sc3n[nH]c(-c4ccc(C)cc4)n3)C2=O)cc1 (centres undefined),active: 2 µM,
CCOc1ccc(C(=O)OCC(=O)N2CCCC2)cc1,,inactive: 2.83%
CC1CC(C)C[N+](=C2C=C(N3CCCC3)CC(C)(C)C2)C1 (centres undefined),active: 17.8 µM,
CCOC(=O)c1cnc(-n2cc(C)cn2)nc1NCc1ccc2c(c1)OCO2,"inconclusive: 63.1 µM [inhibitor, partial curve]",
COc1ccc(OC)c(-c2nnc3n2N=C(c2ccc(OC(F)F)c(OCC4CC4)c2)CS3)c1,"inconclusive: 25.1 µM [inhibitor, partial curve]",
COc1ccc2nc(Nc3nc(CSc4nc5ccccc5[nH]4)cc(=O)[nH]3)nc(C)c2c1,"inconclusive: 2.82 µM [inhibitor, full curve]",

Compound,Potency,"activity change, negative = inhibition"
CSc1ccc(-c2sc(Nc3cccc4ccccc34)n[n+]2-c2ccccc2)cc1,active: 79.4 µM,
BrC(=C\c1ccccc1)/C=N/Nc1nc2ccccc2[nH]1,"inconclusive: 50.1 µM [inhibitor, partial curve]",
COC(=O)C(Cc1c[nH]c2ccccc12)NC(=O)c1cccc(S(=O)(=O)N2CCCCC2)c1 (centres undefined),"inconclusive: 44.7 µM [inhibitor, partial curve]",
COc1ccc(-c2cn[nH]c2-c2ccc(OCc3ccccc3)cc2O)cc1OC,"inconclusive: 39.8 µM [inhibitor, partial curve]",
CCOc1ccc(NC(=O)CN2C(=O)CC(C)Sc3ccccc32)cc1 (centres undefined),,inactive: -0.727%
N#Cc1c(C(F)(F)F)cc(-c2cccc(Cl)c2)[nH]c1=O,"inconclusive: 79.4 µM [inhibitor, partial curve, poor fit]",
CCn1cc2nc(SCC(=O)Nc3ccc(OC)c(OC)c3)n(Cc3ccc(Cl)cc3)c(=O)c2n1,,inactive: -8.53%
Cc1ccc(CNC(=O)CCn2cc(-c3ccc(C)cc3)nc2CCN)cc1,"inconclusive: 63.1 µM [inhibitor, partial curve]",
O=C(Nc1ccc(Nc2ccccc2)cc1)c1ccc(Cl)cc1[N+](=O)[O-],"inconclusive: 20 µM [inhibitor, full curve]",
O=C(O)c1ccc2nc3c(nc2c1)-c1ccccc1C3=O,"inconclusive: 15.8 µM [inhibitor, partial curve]",
c1csc(CNCc2ccncc2)c1,,inactive: -6.16%
Cc1cccc(S(=O)(=O)N2CN(Cc3ccco3)c3nc4ccccc4nc32)c1,"inconclusive: 79.4 µM [inhibitor, partial curve]",
O=C(N/C(=C\c1cccc([N+](=O)[O-])c1)C(=O)N1CCOCC1)c1ccco1,,inactive: -13% [at 57.1 µM]
COc1ccc(CCNC(=O)c2nnn(CC(=O)Nc3ccccc3)c2N)cc1OC,"inconclusive: 89.1 µM [inhibitor, single point]",
COc1ccc(OCCSc2nnc(CC(=O)Nc3cccc(Cl)c3Cl)n2C)cc1,"inconclusive: 56.2 µM [inhibitor, partial curve]",
O=C(Nc1nc(-c2ccccn2)cs1)C1COc2ccccc2O1 (centres undefined),active: 56.2 µM,
Cc1ccc(NS(=O)(=O)c2c(C(=O)N3CCCCCC3)c(C)n(C)c2C)cc1C,"inconclusive: 22.4 µM [inhibitor, full curve, poor fit]",
Cc1ccn2cc(CC(=O)O)nc2c1,active: 39.8 µM,
CCC1CN(C(=O)N2CCC(C(=O)NCc3ccc(N(C)C)cc3)CC2)c2ccccc2O1 (centres undefined),,inactive: -20.7%
O=C1NC(=S)NC(=O)C1=Cc1ccccc1C(=O)O,active: 25.1 µM,
CC1(C)CC(=O)C2=C(C1)N1C(=C(C#N)C2c2ccccc2Cl)N=C(N)c2ccccc21 (centres undefined),"inconclusive: 10 µM [inhibitor, full curve]",
CC1CN(CCCCOc2ccc3ccccc3c2)CC(C)O1 (centres undefined),active: 1.41 µM,
Cc1cc(C(=O)CSc2nnc(N)s2)c(C)n1Cc1cccs1,"inconclusive: 50.1 µM [inhibitor, partial curve]",
Cc1ccc(Cl)cc1N1CCN(C(=O)c2ccc(NC(=O)c3nsc4ccccc34)cc2)CC1,,inactive: -17.2%

# Reference: PubChem BioAssay AID504339 (National Center for Advancing Translational Sciences (NCATS), 2011)
